Measured values as given in PubChem BioAssay AID504444 (National Center for Advancing Translational Sciences (NCATS), 2011).
The campaign covered roughly 360,000 compounds. About 7,500 (2.1%) were called active. Not shown: some 20% with an inconclusive outcome. Calls follow the shape of the dose curve; as a rule, active = well fitted inhibition curve with a large enough effect; inconclusive = small, poorly fitted or top-dose-only effect, or effect the other way; inactive = flat fitted curve, though single readings scatter. Only a part is listed here, and it is no random draw.

Test: Nrf2 qHTS screen for inhibitors; also: nearly all actives have a fitted effect of over 60% in size
Conditions: A549 ARE-Fluc reporter, luciferase luminescence, 18-24 h; series mostly up to 46 µM; activity change, negative = inhibition: at the top concentration
Text: NIH Molecular Libraries Probe Production Network [MLPCN]
NIH Chemical Genomics Center [NCGC]
Assay Provider: Shyam Biswal, Johns Hopkins University
Nrf2 is a transcription factor that maintains cellular redox homoestasis and protects cells from xenobiotics. Nrf2 binds to the antioxidant response element (ARE) to induce gene expression of a broad spectrum of genes that encode for antioxidants. […] Finding a small molecule that act as an inhibitor of Nrf2 function would represent a novel therapeutic target that could lead to improvement in survival of patients undergoing chemo- and/or radio- therapy.
This is the Nrf2 activity measured in the luminescent read.
1. Shibata, T., et al., Genetic Alteration of Keap1 Confers Constitutive Nrf2 Activation and Resistance to Chemotherapy in Gallbladder Cancer. Gastroenterology, 2008.
2. Sjoblom, T., et al., The consensus coding sequences of human breast and colorectal cancers. Science, 2006. 314(5797): p. 268-74.
NCGC Assay Protocol Summary:
A concentration-response assay was performed with A549 ARE_Fluc cells which are suspended in 5% FBS OPTI-MEM. Five uL were dispensed into 1536-well white TC-treated plate using the Kalypsys dispenser to achieve a density of 5000 cells/well in all columns except column 1. The plate is incubated at 37deg C at 5% CO2 for 2 hours before 23 nL of compounds are added with the Kalypsys pin tool equipped with a 1,536-pin array containing 10-nL slotted pins (FP1S10, 0.457-mm diameter, 50.8 mm long; V&P Scientific). The control compounds Budesonide and Staurosporine are both added at a concentration of 2mM and Budesonide is also added as a 1:10 titration, starting at 200uM, to achieve dose-response. After an 18-24 hour incubation at 37deg C at 5% CO2, 5ul of medium is added to column 1. Afterwards 1ul of 5x of CellTiter-Fluor (Promega) is added to every well. The plate is then incubated at 37deg C at 5% CO2 for 30 minutes before they are read on the ViewLux (Perkin Elmer) for a fluorescent read Ex=405(10)/Em=525(10) for a 3 second exposure, 2x binning, and high gain. Then 3 uL of 3x BugLite is dispensed into all wells and the plate is incubated at ambient room temperature for 15 minutes. Afterwards another ViewLux read is performed using the clear filter to get a luminescent read with the settings of 40 second exposure, 2x binning, and high gain. Cytotoxicity is assessed through the first fluorescent read and then biochemical activity against Nrf2 is measured in the luminescent read.
% is scaled to controls: 0 for no effect and ±100 for the full control effect; potency is read from the fitted curve at half-maximal effect.

Structure (SMILES)	activity change, negative = inhibition	Potency
CCN1CCSc2ccc(C(=O)NCc3cccc(F)c3)cc21	inactive: -4.77%	–
O=C(NCc1ccccc1)C1=C[C@H](C2CCCCC2)C[C@H](OCc2ccc(CO)cc2)O1	inactive: -19.4%	–
O=C(C[C@H]1C/C=C\CC[C@H](Cc2ccc(F)cc2)C(=O)OC[C@H]2CCCN2C1=O)N[C@H](CO)Cc1ccccc1	inactive: 12.3%	–
C=CCn1c(C)cc(C2=NNC(=NCC)SC2)c1C	–	active: 16.4 µM
C=CCC[C@H](Cc1ccc(F)cc1)C(=O)OC[C@H](Cc1c[nH]c2ccccc12)NC(=O)[C@H](CC=C)CC(=O)N[C@H](CO)Cc1ccccc1	inactive: 8.53%	–
COc1ccc(/C=C(/NC(=O)c2cccs2)C(=O)Nc2ccc(C)cc2)cc1OC	inactive: -10.6%	–
CC1CC(C)C[N+](=C2C=C(N3CCCC3)CC(C)(C)C2)C1 (stereo unspecified)	–	active: 5.17 µM
O=[N+]([O-])c1ccc(SCCc2ccncc2)cc1	inactive: -6.6%	–
O=C(COCc1cc(-c2ccc3c(c2)OCO3)on1)N1CCN(c2cccc(Cl)c2)CC1	inactive: -4.04%	–
O=C(NCc1ccccc1Cl)C1CCCN(S(=O)(=O)c2cccc3nsnc23)C1 (stereo unspecified)	inactive: -47%	–
Cc1cccc(OCC(=O)Nc2c(C(=O)N3CCN(c4ccccc4F)CC3)oc3ccccc23)c1	–	active: 18.4 µM
CCc1nonc1NC(=O)c1oc2ccc(C)cc2c1C	inactive: 1.46%	–
CCO[C@H]1OC(C(=O)NCc2ccccc2)=C[C@@H](c2ccc(C(F)(F)F)cc2)[C@@H]1CCCO	inactive: -5.95%	–
CC(C)(C)c1ccc(C(=O)N/C(=C/c2cccs2)C(=O)NCc2ccco2)cc1	inactive: 8.14%	–
Cc1ccc(N(C)S(=O)(=O)c2nnc(NC(=O)c3ccco3)s2)cc1	inactive: 13.3%	–
COc1ccccc1C(=O)Nc1ccc(S(=O)(=O)N2CCC(C)CC2)cc1	–	active: 23.1 µM
N#CC1=C2SCN(c3ccccc3)CN2C(=O)CC1c1ccccc1Cl (stereo unspecified)	inactive: 26.3%	–
C=CC[C@H](CC(=O)NCCO)C(=O)N[C@@H](COC(=O)[C@@H](CC=C)Cc1ccc(F)cc1)Cc1ccccc1	inactive: -3.83%	–
C[C@@H]1CCC[C@@]2(O[C@@H](CCO)C[C@H](O)[C@H]2O)O1	inactive: -7.38%	–
C=CC[C@H](CC(=O)N[C@H](CO)Cc1ccccc1)C(=O)N[C@H](COC(=O)[C@@H](CC=C)CC(=O)OC(C)(C)C)Cc1c[nH]c2ccccc12	inactive: -1.52%	–
N#Cc1nc(NCC(F)F)nc(Nc2cc(F)cc(F)c2)n1	inactive: 9.43%	–
O=C(c1ccc2ccccc2c1)C1CCCN(S(=O)(=O)c2cccnc2)C1 (stereo unspecified)	–	active: 20.6 µM
CC(=O)N1CCc2cc(S(=O)(=O)CCC(=O)N3CCN(c4ccccc4F)CC3)ccc21	inactive: 12.3%	–

Structure (SMILES)	activity change, negative = inhibition	Potency
CCCCCC/C=C/c1ccc(OC)c(C2C3C=CCC(C)C3C(=O)N2Cc2ccccc2)c1 (stereo unspecified)	inactive: 9.24%	–
CCOC(=O)C1CCN(S(=O)(=O)c2csc(C(N)=O)c2)CC1	inactive: 2.58%	–
Cc1cc(NC(=O)c2cccc(S(=O)(=O)N(C)C)c2)n(-c2ccccn2)n1	–	active: 25.9 µM
Cc1nc2cccnc2n1-c1cccc(C(=O)N2CCN(c3ccc(Cl)cc3)CC2)c1	–	active: 18.4 µM
CCN(CCCNC(=O)Cn1ncc2c([nH]c3ccc(C)cc32)c1=O)c1cccc(C)c1	inactive: 9.82%	–
COc1cccc(NC(=O)CN2C(=O)c3cccnc3Oc3ccc(Cl)cc32)c1	inactive: -10.9%	–
O=C(Nc1ccccc1)C1=C[C@@H](c2ccc(Br)cc2)C[C@@H](OCc2ccc(CO)cc2)O1	–	active: 18.4 µM
Cc1ccc(N2C(=O)/C(=C/c3ccco3)SC2=S)cc1	inactive: 3.79%	–
O=C1[C@H](Cc2ccccc2)NCCCC[C@@H](c2ccco2)N1Cc1ccccc1	inactive: 6.46%	–
COc1ccccc1Nc1c2ccccc2nc2ccccc12	–	active: 14.6 µM
Cc1cccc(N2CCN(C(=O)Cn3nc(C)n4cccc4c3=O)CC2C)c1 (stereo unspecified)	inactive: -1.5%	–
COc1ccc(CCNc2ccc(N3C(=O)CC(C)C3=O)cc2[N+](=O)[O-])cc1OC (stereo unspecified)	–	active: 14.6 µM
CCN(Cc1ccccc1)S(=O)(=O)c1ccc(C(=O)N(CCCN(C)C)c2nc3c(C)c(C)ccc3s2)cc1	–	active: 18.4 µM
O=C(/C=C/c1ccccc1[N+](=O)[O-])c1ccccc1Br	–	active: 16.4 µM
C=CCOC(=O)C1=C(C)NC(SCC)=C(C#N)C1c1ccc(Cl)cc1 (stereo unspecified)	–	active: 20.6 µM
C[C@H]1COc2c(N3CCN(C)CC3)c(F)cc3c(=O)c(C(=O)O)cn1c23	inactive: 1.79%	–
CC1OC(CC(=O)O)CC2=C1C(=O)c1c(O)cccc1C2=O (stereo unspecified)	–	active: 20.6 µM
CCOC(=O)[C@@H]1[C@H]2COc3cc(OC)ccc3[C@@H]2N2C(=O)N(c3cccc(F)c3)C(=O)[C@@]12C	inactive: 12.7%	–
CCNc1nc(NCc2ccccc2)nc(SCC(=O)Nc2ccccc2)n1	–	active: 23.1 µM
COc1ccc(C)cc1NS(=O)(=O)c1ccc2c(c1)n(C)c(=O)n2C	inactive: -8.91%	–
Cc1ccnn1CC(=O)N/N=C/c1ccc([N+](=O)[O-])s1	–	active: 25.9 µM
CCCN1C(=O)C(Cc2nc3ccccc3c(=O)n2-c2ccccc2)c2cc(C)ccc21 (stereo unspecified)	inactive: -3.44%	–
C[C@@H]1OC(Nc2ccc(N=Nc3ccccc3)cc2)[C@H](O)[C@H](O)[C@H]1O (stereo partly specified)	inactive: 0.843%	–
